Results as given in PubChem BioAssay AID894 (National Center for Advancing Translational Sciences (NCATS), 2007).
The campaign covered roughly 150,000 compounds. About 6,500 (4.3%) were called active. The inconclusive results got no clear call from the source; some entries with a clear call stand among them for comparison. Calls follow the shape of the dose curve; as a rule, active = well fitted inhibition curve with a large enough effect (not every such curve was filed as active); inconclusive = small, poorly fitted or top-dose-only effect, or another doubt; inactive = no such curve, though single readings can be large or run the other way. Where the call is inconclusive, the potency comes from a doubtful curve fit.

Biological target: 15-hydroxyprostaglandin dehydrogenase [NAD(+)] (Homo sapiens) (UniProt P15428)
Assay: qHTS Assay for Inhibitors of HPGD (15-Hydroxyprostaglandin Dehydrogenase)
Details: purified HPGD, NADH fluorescence kinetic, PGE2 substrate; activity change, negative = inhibition: stronger effect = lower value
Summary of the method: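 NADH formation kinetics: reaction with 30 uM PGE2 and 1 mM NAD+ (final), 20 nM enzyme, Tris-HCl pH 8 with Tween 20, after 15 min compound preincubation at room temperature. Fluorescence change, last versus first of five reads.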
% is scaled to controls: 0 for no effect and ±100 for the full control effect; potency is read from the fitted curve at half-maximal effect; tags tell the direction and shape of the fitted curve.

Sequence of UniProt P15428 (P15428 whole entry, looked up): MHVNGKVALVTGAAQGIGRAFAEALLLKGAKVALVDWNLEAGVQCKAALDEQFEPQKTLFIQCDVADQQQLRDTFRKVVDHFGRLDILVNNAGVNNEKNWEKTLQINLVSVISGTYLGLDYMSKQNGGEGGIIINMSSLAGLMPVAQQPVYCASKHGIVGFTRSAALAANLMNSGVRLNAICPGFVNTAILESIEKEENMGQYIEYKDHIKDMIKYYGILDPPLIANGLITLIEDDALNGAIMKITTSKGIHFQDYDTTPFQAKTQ

Potency, inconclusive:
O=c1[nH]c2ccccc2c(=O)n1Cc1ccccc1 31.6 µM [inhibitor, partial curve]
O=C(Oc1cccnc1)c1cc2ccccc2oc1=O 31.6 µM [inhibitor, partial curve]
CCOC(=O)CNC(=O)Cn1c(C)cc2ccccc2c1=O 17.8 µM [inhibitor, partial curve]
CCN(c1ccccc1)S(=O)(=O)c1ccc2[nH]cc(C(=O)NCCOC)c(=O)c2c1 15.8 µM [inhibitor, partial curve]
CN(C)c1ccc(P(=O)(Nc2cccc(C(F)(F)F)c2)N2CCOCC2)c(NC(=O)c2cccs2)c1 (centres undefined) 25.1 µM [inhibitor, partial curve]
N#Cc1c(N)nc2c3c(sc(=N)c2c1N)NC(=O)CC3c1c(F)cccc1Cl (centres undefined) 31.6 µM [inhibitor, partial curve]
CCOC(=O)c1sc(NC(=O)/C=C/c2cnn(C)c2C)c(C(=O)OC(C)C)c1C 15.8 µM [inhibitor, partial curve]
CC(=O)OC[C@H]1O[C@@H](Sc2cccc3cccnc23)[C@H](OC(C)=O)[C@@H](OC(C)=O)[C@H]1OC(C)=O 25.1 µM [inhibitor, partial curve]
CCCn1nc2cc(C(=O)NCc3ccc4c(c3)OCO4)ccc2c1OCC 28.2 µM [inhibitor, partial curve]
C=CCNC(=O)c1ccccc1NC(=O)c1ccc(Cl)c(S(=O)(=O)Nc2ccccc2)c1 22.4 µM [inhibitor, single point]
Cc1ccc2c(c1)c1c(n2CC2COC(C)(C)O2)C(=O)CCC1 (centres undefined) 28.2 µM [inhibitor, partial curve]
CCOC(=O)c1c(NC(=O)C2=C(C)NC(=S)NC2c2ccc(C)cc2)sc(C)c1C (centres undefined) 28.2 µM [inhibitor, partial curve]
Cc1ccc2[nH]c(=O)c3cc(C(=O)N4CCN(C(=O)c5ccco5)CC4)sc3c2c1 12.6 µM [inhibitor, partial curve]
CC1(C)Oc2ccc3ccc(=O)oc3c2CC1=O 22.4 µM [inhibitor, partial curve]
O=c1[nH]c(N2CCCCC2)nc2c1CCCC2 25.1 µM [inhibitor, single point]
COc1ccc(NC2CCN(C3CC(=O)N(c4ccc(F)c(Cl)c4)C3=O)CC2)cc1 (centres undefined) 31.6 µM [inhibitor, single point]
Cc1nc(N2CCN(c3ccccc3)CC2)nc2c1C(=O)CC(c1ccccc1)C2 (centres undefined) 25.1 µM [inhibitor, partial curve]
CNC(=S)N/N=C/c1cc(Br)cc(Br)c1O 15.8 µM [inhibitor, partial curve]
CCc1cc(SC#N)cc(CC)c1NC(=O)CCl 35.5 µM [inhibitor, single point]
CCOc1cc(/C=C(/C#N)c2ccc(F)cc2)ccc1OCc1ccc(C(=O)O)o1 31.6 µM [inhibitor, single point]
CCCC(=O)Nc1ccc2oc(-c3ccc(OC)c(Br)c3)nc2c1 28.2 µM [inhibitor, partial curve]
c1ccc(-n2cnnc2SCc2cn3cccnc3n2)cc1 31.6 µM [inhibitor, partial curve]
COc1ccc(-c2csc3ncnc(Oc4ccc5c(C)cc(=O)oc5c4)c23)cc1 14.1 µM [inhibitor, partial curve]
Cc1ccccc1-n1c(C)cc(/C=C2/C(=N)N3C(c4ccccc4)=CSC3=NC2=O)c1C 28.2 µM [inhibitor, single point]
CC1CCC/C(=C\Nc2ccc3c(c2)OCO3)C1=O (centres undefined) 31.6 µM [inhibitor, partial curve]
O=C(CCC(=O)OCC(=O)c1ccc(Br)cc1)Nc1ccc(Br)c2cccnc12 28.2 µM [inhibitor, single point]
C(#Cc1ccccc1)Cn1nnc2ccccc21 31.6 µM [inhibitor, partial curve]
CCc1nnc(NC(=O)CSc2ccc(-c3nc4ccccc4[nH]3)cn2)s1 28.2 µM [inhibitor, partial curve]
Cc1ccc2cc3cc(C(=O)N4CCCCCC4)oc3nc2c1 4.47 µM [inhibitor, partial curve]
CSc1nc2ccc3nc(NC(=O)c4ccccc4)sc3c2s1 28.2 µM [inhibitor, partial curve]
CC(C)OC(=O)CC(=O)CSc1nc2c(cc1C#N)CCCCC2 28.2 µM [inhibitor, partial curve]
CCC(C)NC(=O)CSc1nnc(-c2cc(-c3cccs3)nc3ccccc23)o1 (centres undefined) 22.4 µM [inhibitor, partial curve]
COc1ccccc1CNn1c(-c2cccc(C)c2)nc2ccccc2c1=O 11.2 µM [inhibitor, partial curve]
Cc1cc(=O)oc2cc(OCC(=O)OCC(=O)Nc3ccc4ccccc4c3)ccc12 28.2 µM [inhibitor, partial curve]
CCOc1ccc(-c2nc(S(=O)(=O)c3ccccc3)c(NCc3cccnc3)o2)cc1 28.2 µM [inhibitor, partial curve]
CC(C)Oc1ccc(/C=N/NC(=O)c2ccc(N(Cc3ccccc3)S(C)(=O)=O)cc2)cc1 28.2 µM [inhibitor, partial curve]
CC(=O)c1cccc(NC(=S)NC(=O)c2ccccc2)c1 20 µM [inhibitor, single point]
CC1CCc2cc(F)ccc2N1C(=O)c1cc2nc(-c3ccco3)cc(C(F)(F)F)n2n1 (centres undefined) 28.2 µM [inhibitor, partial curve]
c1csc(-c2nn3c(Cn4cnc5ccccc54)nnc3s2)c1 10 µM [inhibitor, partial curve]
COc1ccc(S(=O)(=O)n2nc(OC(=O)c3ccccc3)cc2N)cc1 17.8 µM [inhibitor, partial curve]
Nc1nc2c(s1)CCc1c-2cnn1-c1ccccc1 25.1 µM [inhibitor, partial curve]
COc1ccc2[nH]c(-c3ccccc3)cc(=O)c2c1 35.5 µM [inhibitor, partial curve]
Cc1nc(N2CCOCC2)nc2c1CCCC2 25.1 µM [inhibitor, single point]
O=C(NCc1ccccc1)c1cccc(COc2ccccc2Cl)c1 14.1 µM [inhibitor, partial curve]
CCc1c(C(C)O)oc2ccc3c(C)cc(=O)oc3c12 (centres undefined) 1.41 µM [inhibitor, full curve]

Potency, active:
Cc1ccc(-c2n[nH]c(=S)n2/N=C/c2cccn2C)cc1 8.91 µM
Cc1ccccc1-c1cc(-c2ccccc2O)on1 14.1 µM
COc1ccc(NS(=O)(=O)c2ccc3nc(COc4cccc5ccccc45)[nH]c3c2)cc1 35.5 µM
CCOC(=O)C(=O)Nc1nnc(C2CCCCC2)s1 15.8 µM
COc1ccc(CCN2CC(C#N)=C3c4cc(OC)c(OC)cc4CCN3C2)cc1OC 7.08 µM

Activity change, negative = inhibition, inactive:
CCCCn1c(SCC(=O)N2c3ccccc3CCc3ccccc32)nc2c1c(=O)n(C)c(=O)n2C -7.74%
COC(=O)C(Cc1ccc(O)cc1)NC(=O)CCC(=O)Nc1ccc(S(N)(=O)=O)cc1 (centres undefined) -15.5%
O=C(CCCNS(=O)(=O)c1ccc(Br)cc1)N1CC[C@@]2(O)CCCC[C@H]2C1 -7.94%
CCOC(=O)c1ccc(NC(=O)CSc2nnc(NC(=O)c3ccc(S(=O)(=O)N4CCOCC4)cc3)s2)cc1 -20.2%
Cc1nc(N2CCC(C(N)=O)CC2)c2nnn(Cc3ccccc3)c2n1 -3.59%
CCCC(=O)Nc1cc(-c2nn(C)c(=O)c3ccccc23)ccc1N1CCOCC1 -12.9%
CCOC(=O)C1CCN(C(=O)Cc2cccs2)CC1 -2.15%
O=c1c2ccccc2n2c(-c3ccc(F)cc3)nnc2n1Cc1ccccc1 -9%
CCOC(=O)c1c(/N=C/C2=C(O)CC(C)(C)CC2=O)sc(C)c1C -5.04%
COc1ccc(CCC(=O)NCc2cnn(C)c2)cc1 0.182%
O=C(O)Cn1cccc1C(=O)c1ccccc1 -22.8%
COc1ccc(C(=O)Nc2ccc(Cl)cc2C(=O)N2CCCC(C)C2)cc1 (centres undefined) -8.72%
CCCCNC(=O)CC1Nc2ccccc2NC1=O (centres undefined) -26.1%
Cc1occc1-c1nnc(SCC(=O)NC(=O)NC(C)C)n1N -9.27%
CC(C)CN1CC2(CCN(C(=O)c3ccco3)CC2)C1 -11.8%
COC(=O)c1cc(Br)ccc1OC(=O)c1cccnc1 -2.88%
O[C@@](CCN1CCCC1)(c1ccccc1)C1CCCCC1 4.66%
CCC(C)NC(=O)COC(=O)c1oc2ccccc2c1CSc1ccc(Cl)cc1 (centres undefined) -7.29%
O=C(NCCOc1ccccc1)c1ccc2c(c1)OCO2 -2.51%
